Data on 14 molecules can be found in article PMC12136788.

T1: UNK ZnF1-3 (human, UniProt Q9C0B0 31-174)
T1 sequence: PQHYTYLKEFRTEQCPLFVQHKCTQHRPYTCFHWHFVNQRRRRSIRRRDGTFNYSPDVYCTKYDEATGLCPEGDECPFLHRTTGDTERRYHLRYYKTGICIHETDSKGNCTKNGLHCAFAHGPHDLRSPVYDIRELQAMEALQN

B1: 138048383_138048959_989_CDS_ENSMUSG00000040268_ENSMUST00000120441|mouse|control|control (ssRNA)
RNA: GGGAGUUCUACAGUCCGACGAUCGAAAGUCCGAGAUGUCGUCACGAUUUCAAACAGGUUGUCCCUCAUCAUUAUGUCACUCUGUUUGCACUCCUGGACUUUGUGCACUUCUUUAAGUGGUAUCACCCGCAGAGGUUCCUUCUCCAACAGAGGAUUGAGCAUCA
B2: 110301011_110306659_465_3pUTR_ENSG00000137714_ENST00000260270|human|control|control (ssRNA)
RNA: GGGAGUUCUACAGUCCGACGAUCUUUUCAACCACAACAUCUAGCAGAGAAUCACCAACUUUUCCUUUGGUUGUUAAUGUUUCACCAUCACGGUUUAUAAAGUGGACUGUUAUUUUAUCUUCUGAGCUGCUCCGGGCCCGCGCCCAACAGAGGAUUGAGCAUCA
B3: chr2:39006174:39006175:+_ENSG00000152147_ENST00000409566|hu_mus|motif|central (ssRNA)
RNA: GGGAGUUCUACAGUCCGACGAUCUACUCCUUCUCACAGGCUAUCACUCUCACUUCUUUAUAAACGUAAUCUUCCCAUUCGGAGGGGCUUUUCUUCAUCCAUUCGCUCAUGGUUACCAGUUGCCCAGAUUCUUUCUAGAUGACUCAACAGAGGAUUGAGCAUCA
B4: 29580787_29581120_1290_CDS_ENSMUSG00000010721_ENSMUST00000055195|mouse|control|control (ssRNA)
RNA: GGGAGUUCUACAGUCCGACGAUCCAUAGUUGUGUCAUCCUUCUUGGGUGUAAAGUUUCCAAAAAAUCUGAGGCUAUAGAAACCAACAACAGAAGACACCAUGAGAUAGAAAAUCAGAAUGAUUUCAAGUGCAGCUCCCACAAACAACAGAGGAUUGAGCAUCA
B5: chr7:65705844:65705845:+_ENSG00000169902_ENST00000304842|hu_mus|hu_hu_hu_mus_False|18_78 (ssRNA)
RNA: GGGAGUUCUACAGUCCGACGAUCAAACGGAUCUUUGUUACAUAAAUAAGGUGCCGGCUCCCCAUGCUUAACAAUGACCUCCAGAAGGAAGGCUUGCAUGGCAGAAUCUAGCACUUCAUCAGUAACACCCGCCUCAUCCAAGCGCAACAGAGGAUUGAGCAUCA
B6: chr1:109605286:109605287:-_ENSG00000197780_ENST00000461096|hu_mus|hu_hu_hu_mus_True|1_108 (ssRNA)
RNA: GGGAGUUCUACAGUCCGACGAUCAAGAACAAUAACAACAUUCAGUAACCUCUUUAAAUGCAAUUAUCCUUAUUAUAAGCUAAGCAGAAUAAUAAUUUAAUACCGUAAGUGAACUACACACAAAGCCUGAACCGCGAAACUACACAACAGAGGAUUGAGCAUCA
B7: chr4:84185219:84185220:-_ENSG00000173085_ENST00000439031|hu_hu|FALSE|FALSE (ssRNA)
RNA: GGGAGUUCUACAGUCCGACGAUCUCUGUGACAAGGGGGAAUUUUGCUAGCAAAUAAGUAAAAUCCAGGUAAAUAUGCUCUAAAUCUUCAUCUUCAGGUUCUUAAUUCUUUAACAUAUUGUAUCAGAUUUUGUAUUCAAAUCUACAACAGAGGAUUGAGCAUCA
B8: chr2:122217683:122217684:-_ENSG00000074054_ENST00000409078|hu_hu|FALSE|FALSE (ssRNA)
RNA: GGGAGUUCUACAGUCCGACGAUCACGCAAAUGUUGAAAGAAGUUAUCAUACUCAGCAGCACCAGCCAAAAGUAAAGAUCUAAUCUUUUUUAGAGCAUUUACUCUCUGCUCCCAAUCAUGCUUGUCAUCAGAUAAUAUUUCCCUCAACAGAGGAUUGAGCAUCA
B9: chr10:57943292:57943293:+_ENSMUSG00000003226_ENSMUST00000003310|mus_hu|motif|central (ssRNA)
RNA: GGGAGUUCUACAGUCCGACGAUCCAAAGACCCAGUGGCUGAACUGUUGCCGAAUGCAAAUGGUUUUGAUUUUUCACGGCGGAAAAUGCUUUUAACAGACUCUGAACCAAAUACAAACUUUGGAGGAGAAACCACUGCUUUUGGCAACAGAGGAUUGAGCAUCA
B10: chr8:100899844:100899845:-_ENSG00000164919_ENST00000517682|hu_hu|FALSE|FALSE (ssRNA)
RNA: GGGAGUUCUACAGUCCGACGAUCUUGAUCAGCCACACGAAACUUAUACAAAGCUGCAACCCCCAGGGAUAGCACGAAUGCUACAGCCAUAUGAUUUCGCAGACGCCUGGCCAGAAGGCCACGCAUCCGAGGUUUUGGCAAAACCAACAGAGGAUUGAGCAUCA
B11: chr14:66974463:66974464:+_ENSMUSG00000022044_ENSMUST00000074523|mus_hu|mus_mus_mus_hu_False|1_78 (ssRNA)
RNA: GGGAGUUCUACAGUCCGACGAUCUUGUAGGACGACUUAUUCAGGGGAUCGGCCAGGAAGCAAGAGCAGAACAAGGACACCAGCGGGAGCUCCUUCAUCUUCUCUUUGUAGGCAGCAAGGGUCAUGUUUCUGGGAUCCUGGUGGCAACAGAGGAUUGAGCAUCA
B12: chr5:143131892:143131893:+_ENSMUSG00000029578_ENSMUST00000036872|mus_mus|FALSE|FALSE (ssRNA)
RNA: GGGAGUUCUACAGUCCGACGAUCCAGGAUAGUGUUGGAGUAGCUGUAGUUGCAUAUCUCAGUUCCCUUCUUAAAAUGGCAAACCUUCAGCUUCCUGGGAGCUUUGAGGCUGACAAUGGCCACCAAGCUGCUUGAGAACAAUCUCAACAGAGGAUUGAGCAUCA
B13: chr14:76904568:76904569:+_ENSMUSG00000022010_ENSMUST00000022587|mus_mus|FALSE|FALSE (ssRNA)
RNA: GGGAGUUCUACAGUCCGACGAUCGUUUUCGGUUCCCAGCAAAGACGACAAGAAAGAAAUGGAAAAAUGUCUCAGUUGGUAAACUCCUAGAUCCAUCGCCACUGGUCUACACCAUUGGGAUUUCAUGCAAUUGCAGCCAAAUUACAACAGAGGAUUGAGCAUCA
B14: chr14:63765801:63765802:-_ENSMUSG00000021273_ENSMUST00000054963|mus_mus|FALSE|FALSE (ssRNA)
RNA: GGGAGUUCUACAGUCCGACGAUCCUGCUUGGUUUUGCUUGAUGAUGGGUCUGAGUUGGGGAUCCGGUGAUAAAUCUCUUCUAUGUACUGGUAUAUGAUAGCUUUGACGGCAGGCAUGUUGGUGGCAUCCAUCAUGAGGGUGACCAACAGAGGAUUGAGCAUCA

This is one part of the list.

This assay addresses T1, UNK ZnF1-3. The experiment in a line: nsRBNS (natural sequence RNA bind-n-seq); RBNS binding buffer (assumed for nsRBNS): 25 mM Tris pH 7.5, 150 mM KCl, 3 mM MgCl2, 0.01% Triton X-100, 500 ug/ml BSA, 20 U/ml SUPERase-In, 4 C; UNK is unkempt and MSI1 is Musashi-1; names of the RNAs are library labels; protein concentration not given here; high values mean tight binding.
B1 displayed a binding signal of 0.613 enrichment R.

Regarding B2, the binding signal turned out to be 0.761 enrichment R.

Turning to B3, the binding signal was 0.691 enrichment R.

The molecule B4 yielded a binding signal of 1.23 enrichment R.

As to B5, the binding signal came to 0.255 enrichment R.

Turning to B6, the binding signal was 0.836 enrichment R.

B7: the binding signal worked out at 0.734 enrichment R.

Regarding B8, the binding signal came to 1.23 enrichment R.

With B9, the binding signal was 1.11 enrichment R.

The molecule B10 had a binding signal of 1.52 enrichment R.

Regarding B11, the binding signal worked out at 2.02 enrichment R.

Molecule B12 registered a binding signal of 1.07 enrichment R.

In the case of B13, the binding signal was found to be 1.26 enrichment R.

The molecule B14 displayed a binding signal of 1.4 enrichment R.
